From the supplement of paper PMC10126150
Sequences with one replicate were seen in a single cluster, so their values are uncertain.

The sequences below were run on ATP (assay: switch fluorescence ratio, 500 uM ATP over buffer (Cy3 cluster intensity, sum of 5 cycles each) (fold (ratio)); higher = stronger signal-on switching upon ATP binding; sequences stand for … in TCGTCGGCAGCGTCAGATGTGTATAAGAGACAGTTTTTTTTTTTTTTTTTTTTTTTTT…TC). Conditions: aptamer strand: ATP DNA aptamer (quencher-CACCTGGGGGAGTATTGCGGAGGAAGG + anchor), 100 nM annealed; ATP concentration: 500 uM; one replicate.
Procedure, shortened: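 Imaging in selection buffer was followed by imaging after 15 min with 500 uM ATP at 22 °C, for Cy3-labelled switching-strand clusters annealed to 100 nM quencher-labelled ATP aptamer on a modified Illumina MiSeq flow-cell. Five of these buffer/ATP cycles ran, separated by NaOH stripping and re-annealing. The fluorescence ratio per cluster is summed target-cycle over summed buffer-cycle Cy3 intensity, averaged per switch-domain sequence; clusters outside 100-1000 RFU were removed.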
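Further: ATP exposure 15 min at 22 °C before imaging.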

Sequence | switch fluorescence ratio
TGCCGTCCTC | 0.993
TTTTCGAACT | 1.02
GAGCTCACCC | 0.999
TCTATCGGGA | 0.947
ATTGCTTACT | 1.01
GGAACGGTTG | 0.969
TTTGATACCG | 0.995
CCACTTATCT | 1.04
AGATTCGGTG | 0.987
TGAAATTGAG | 0.986
CCGGGTGTCT | 1.09
AAAGATACA | 0.983
TATGTAAGTA | 1.01
ACTCCGCGGG | 4.77
TGTGATGGCA | 0.933
ACATCGGCTC | 1.03
AATATAGAGG | 0.974
TGAAGCGCAT | 1.08
CGTGTCTGGG | 0.99
TCGGGCATTT | 1.82
GGCACAAAAT | 1.03
CGGTAGCGAG | 0.94
AGTTGGTGCA | 0.964
TACTAGTGAA | 1.04
GCCCCCAACG | 1.22
CGTTATCAAA | 0.993

Sequence | switch fluorescence ratio
GGCCGGT | 1
TAAATCTGAA | 1.01
GTTGCCAACG | 1.03
ACCAGGCTGG | 1.02
AGTAGTTTAC | 0.998
TAGGTAAGA | 0.968
GGATACGCTA | 1.13
GCGCGCATCC | 0.98
GAAAATCCCA | 0.99
TACTTCGAGG | 0.995
TAATTGTTAG | 0.976
TGAGTATATG | 1
AGTGGATGCT | 0.896
TCGTTGAAGG | 0.961
GTGGAGCCTG | 1.03
CCCATACAGC | 1.07
GATTGATACT | 0.957
CACGGTCATT | 1.03
TTCCCATGTG | 1.78
AATGTAGCCA | 0.998
CCGACGTGTT | 3.73
CGGGATGGC | 1.03
TACTAGGTTC | 1.01
CGCAGATCGC | 1.37
ATATGACTAA | 0.993
AGGTGCTCAG | 1.08

Sequence | switch fluorescence ratio
TTTTGTCTAA | 1
GTGCTTGATA | 1.03
AGTATAGCCT | 1.02
TATTCGCCAC | 1.15
AATTATCCGA | 0.989
GCAGCACCGG | 1.05
ATCATAATGA | 1.01
TATTATTAGC | 0.99
CGATCTTTCA | 1.01
ACGAATTTC | 1.04
ACGGGATCGA | 1.01
TAGATAGTTG | 0.933
TACTCTCTTT | 1.01
TGACGGTCTA | 1.02
TCCATCTACT | 1.02
CCCCTTCGTG | 1.82
CGTCGGGAAG | 1.02
CATCGTTTTC | 0.982
AACTATGCG | 0.978
GCTTGGGCAT | 1.01
GGCTTTTCTG | 1.04
TGGCTCAAAA | 1.02
GTGTTCCGAG | 1.05
GCGCGTGAAA | 0.997
TAAGGGAACG | 0.961
GAGTCAAATC | 1

Sequence | switch fluorescence ratio
CAGGCCTCAC | 1.09
GCAGGCATAG | 1.01
AAAGTTGACA | 1.05
ACAGTTAATT | 1
TATAGTACTG | 1.08
GTCTAGAGTG | 0.995
TATTGACTCT | 1.04
AATGAGGTTC | 0.992
CAAAGACAGA | 1.01
CCGCTGGCGG | 1
GGTACAGAAG | 1.03
CTGTCTGTTG | 0.956
CAACGGCAG | 1.03
CTATTATAGG | 0.995
ACAGACTGCT | 1.08
CTAGGATATA | 1
TCTTAACACG | 1.03
AGGCCGTCAC | 0.998
AAGTGTAGGC | 1.01
GCATGTAAGC | 0.995
CATGACAGCT | 1.01
GTTGTAGGCG | 1.02
GGGACTTGCA | 1.05
TCGTAAGTTA | 0.982
GGTTAAGCCC | 0.993
ACTTAAGCTT | 1.1

Sequence | switch fluorescence ratio
CTAGGAAAAA | 1.09
ATAAAGTTTT | 0.966
TGAGACTG | 0.972
GCTGTAATGT | 1.03
CTAGGTCAGG | 0.99
TAATCAGAT | 1.02
GTTCTGGG | 1.01
TCTATTATAG | 0.962
GCTTTTGATC | 0.969
AAAACGTCAT | 1.03
AACATCACA | 1.16
TACGAATATA | 1.07
TACACGCAAG | 1.18
CAACATCCTA | 1.02
CCTAATAGGT | 0.976
TTGCGCTTTA | 0.987
TGCAAATAGC | 1.02
AAGGCTCCGC | 1.4
TGTATCGCGT | 0.951
CCGGGCCTCA | 2.18
GATAGCAGGC | 1.45
AAAAGAGGCT | 1.04
TGGGAGATCT | 0.976
TGCCAGGCGG | 0.976
GTGTAAGCG | 1.01
AAAAAGTAGC | 1.04

Sequence | switch fluorescence ratio
TTGATTGTCT | 1.03
ACAAAGGATC | 0.991
AAAATCAGTT | 0.985
ACGCTTAATA | 1.12
GGTGCCACG | 0.994
TATACTCGGA | 1.03
TAAGAGCCGG | 1.02
TGTGACCGCA | 1.25
GAGATTTGTG | 0.989
CCACCTTCTG | 1.09
GTAACCGT | 1.01
AAGATTTGCA | 0.994
TGGCTTCACA | 1.01
GACGTTGGCA | 1.02
GCAGGCACAG | 1
GCCCTAGGCG | 1.04
TGAATTACTA | 0.999
TTCACAGCGT | 1
CCGTCAGCTG | 1.16
ATTCAGTGGA | 0.958
AGTGCAAATC | 1.05
GACACTAGGC | 1
TAGTACGCGT | 1.02
ATCGATTATT | 1.01
CTTCTTATTT | 1.01
TAAGACGTCT | 0.972

Sequence | switch fluorescence ratio
AGCCTCACGG | 1.03
AAGTCAGAAA | 1.02
ACGGATGGCC | 0.955
CAGGGTGTTT | 1
TCCAATGTGC | 1.35
TGTGTCGTTA | 1
TGTTAATCTA | 0.997
GTCTGAGGTC | 0.971
ATTATACCAA | 1
AACCAGGTGA | 1.02
GTTTCGGACT | 0.963
TACTGTACGG | 1.5
CTAGTGAAGC | 1
TATTTTGAGG | 0.989
TGTGTACGGT | 0.978
GCTGGGGACA | 1.01
TTATGTTT | 0.991
AAGAATCGTG | 1
GGCACACATC | 1.03
TGGTTCTCGT | 1.01
CACTGCAACT | 1.69
TATACGTCAG | 0.983
GTAGACGAGA | 0.927
CCGGAACTTA | 1.1
GTTGAGTATG | 0.995
TAGAGATAGT | 0.955

Sequence | switch fluorescence ratio
AGATCTTTAT | 0.995
TGCTCCCCGT | 1.04
TCGTCCTTT | 0.96
TTGCTTCTAT | 0.986
ATCACGGGCG | 0.976
GATAGATAGC | 1
ATCTAGTAAC | 1.01
CGTGGGCCT | 1.03
TTCGCCTTAA | 0.994
ACCAGCGTGA | 1.11
CCTGACGATG | 2.34
GTGAACATCG | 1.02
TCAACGTCGA | 1.07
GAGTGGTGGG | 0.994
CGTCAAAAAA | 1.11
CTGGAATCTG | 0.963
GAACTACTAA | 1.02
CTAGGTCGCC | 1.01
CAACGAGCCG | 0.987
